This note sets out measurements from article PMC4336329 (PLoS ONE, 2015).

About 14,000 (4.5%) of roughly 310,000 compounds showed an effect of 50% or more. Effects have a minus sign here. The list shows a part of the results.
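Note: peak tail current of the secondary pulse compared with the same well before compound.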

The target of this assay is human ether-à-go-go-related gene (hERG) potassium channel (human, UniProt Q12809). Kind of assay: primary screen, population patch clamp on CHO cells stably expressing hERG.
Sequence of human ether-à-go-go-related gene (hERG) potassium channel (Q12809 whole entry, looked up): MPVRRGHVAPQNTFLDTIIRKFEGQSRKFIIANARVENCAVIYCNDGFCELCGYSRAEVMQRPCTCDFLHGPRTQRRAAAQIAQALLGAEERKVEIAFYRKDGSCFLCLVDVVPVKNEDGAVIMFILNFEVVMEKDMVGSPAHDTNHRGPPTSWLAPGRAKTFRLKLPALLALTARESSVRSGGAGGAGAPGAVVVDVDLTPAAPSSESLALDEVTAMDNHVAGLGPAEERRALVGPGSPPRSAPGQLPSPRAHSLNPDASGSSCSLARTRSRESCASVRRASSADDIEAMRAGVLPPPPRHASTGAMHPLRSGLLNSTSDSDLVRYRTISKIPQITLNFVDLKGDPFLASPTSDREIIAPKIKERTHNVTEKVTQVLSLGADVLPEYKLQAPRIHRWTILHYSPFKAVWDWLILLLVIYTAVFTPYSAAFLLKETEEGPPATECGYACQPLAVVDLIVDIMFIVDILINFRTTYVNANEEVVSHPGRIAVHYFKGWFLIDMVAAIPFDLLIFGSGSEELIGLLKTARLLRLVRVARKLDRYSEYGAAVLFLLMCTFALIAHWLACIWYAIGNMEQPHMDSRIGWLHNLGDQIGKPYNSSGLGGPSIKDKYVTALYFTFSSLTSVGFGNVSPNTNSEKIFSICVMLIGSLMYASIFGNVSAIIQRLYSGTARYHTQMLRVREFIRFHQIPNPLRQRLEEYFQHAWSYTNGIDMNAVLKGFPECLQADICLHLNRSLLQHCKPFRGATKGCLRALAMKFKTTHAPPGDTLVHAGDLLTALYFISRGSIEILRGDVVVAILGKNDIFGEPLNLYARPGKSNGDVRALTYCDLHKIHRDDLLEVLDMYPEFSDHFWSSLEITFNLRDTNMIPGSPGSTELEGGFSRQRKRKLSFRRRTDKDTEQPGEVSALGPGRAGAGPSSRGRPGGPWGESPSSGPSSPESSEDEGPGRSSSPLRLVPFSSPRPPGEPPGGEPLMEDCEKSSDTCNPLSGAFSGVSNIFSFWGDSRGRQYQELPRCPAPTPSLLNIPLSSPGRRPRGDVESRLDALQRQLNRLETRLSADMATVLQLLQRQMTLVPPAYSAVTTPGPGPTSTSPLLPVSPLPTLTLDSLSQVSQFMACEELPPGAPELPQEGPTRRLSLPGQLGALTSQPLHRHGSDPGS
On to `CC1CCC2(CC1)NC(=O)N(CC(=O)Nc1sc3c(c1C(N)=O)CCC3)C2=O` (stereo not drawn), for which the “hERG current change (%, negative = inhibition) at 10uM” value is listed as -3.32%.
Take `CS(=O)(=O)c1ccc2nc(NC(=O)CN3CCCCCC3)sc2c1.O=C(O)C(=O)O`: the “hERG current change (%, negative = inhibition) at 10uM” value is given as 4.7%.
The same measure for `O=C(N/N=C/c1ccc(O)cc1)c1cncc(Br)c1`: 2.52%.
With `CC(C)C(C(=O)Nc1ccc2c(c1)OCO2)N1C(=O)c2ccccc2C1=O` (stereo not drawn), the “hERG current change (%, negative = inhibition) at 10uM” value is -29.6%.
As for `CCc1nnc(NC(=O)CSc2ccc(-c3ccco3)nn2)s1`, the “hERG current change (%, negative = inhibition) at 10uM” value is 3.73%.
Consider `O=C(Nc1cccn2ncnc12)C(F)(F)F`, for which the “hERG current change (%, negative = inhibition) at 10uM” value turned out to be 21.7%.
In the case of `Cn1c(SCc2ccccc2)nc2ccsc2c1=O`, the “hERG current change (%, negative = inhibition) at 10uM” value turned out to be 2.72%.
The same measure for `CCOc1ccc(-n2c(SCC(=O)NC(C)CC)nc3n[nH]c(C)c3c2=N)cc1` (stereo not drawn): 10.2%.
With `CCOc1ccc(NC(=O)CN(Cc2ccccc2)S(C)(=O)=O)cc1`, the “hERG current change (%, negative = inhibition) at 10uM” value is 4.03%.
Turning to `CC(C)N(CCNC(=O)c1oc(=O)c2ccccc2c1-c1ccccc1)Cc1ccco1`, the “hERG current change (%, negative = inhibition) at 10uM” value is on record as -67.9%.
With `COc1ccc(-n2c(Cc3cccn3C)nnc2SCC(=O)Nc2nc(C)cs2)cc1`, the “hERG current change (%, negative = inhibition) at 10uM” value is -6.16%.
On to `COc1ccc(COC(=O)C2=C(C)NC(=O)NC2c2ccc(O)cc2)cc1` (stereo not drawn), for which the “hERG current change (%, negative = inhibition) at 10uM” value is on record as -3.47%.
For `Cc1ccc(N2CCCC2=O)cc1S(=O)(=O)N1CCOCC1` the value was 9.97%; for `CC(C)(C)c1ccc(C(=O)Nc2ccc(C(=O)N3CCCC3)cc2)cc1`, -37.6%.
In the case of `CC1(C)C2([N+](=O)[O-])CN3CC1([N+](=O)[O-])CN(C2)C31CCCC1`, the “hERG current change (%, negative = inhibition) at 10uM” value is -14%.
Regarding `O=C(NCCN1CCOCC1)c1ccccc1[N+](=O)[O-]`, the “hERG current change (%, negative = inhibition) at 10uM” value is given as 1.06%.
For `Fc1ccccc1-n1cc(-c2ccccc2)[nH]c1=S`, the “hERG current change (%, negative = inhibition) at 10uM” value is given as 17.9%.
Take `COc1ccc(S(=O)(=O)NCCCCCC(=O)O)cc1C(=O)O`: the “hERG current change (%, negative = inhibition) at 10uM” value is reported as 28.4%.
On to `CCCc1nnc(SCC(=O)Nc2nc(C)cs2)n1CCOC`, for which the “hERG current change (%, negative = inhibition) at 10uM” value was found to be 4.13%.
For the compound `Cc1c(OCC(=O)NC2CC(C)(C)NC(C)(C)C2)ccc2c3c(c(=O)oc12)CCC3`, the “hERG current change (%, negative = inhibition) at 10uM” value came to 14.4%.
Turning to `COc1ccc(C2(NC(C)=O)CCN(C(=O)CCC(=O)O)CC2)cc1`, the “hERG current change (%, negative = inhibition) at 10uM” value amounted to 10.3%.
Take `COc1ccc(C(=O)N/N=C/c2ccc(OC)c(COc3ccc(F)cc3F)c2)cc1`: the “hERG current change (%, negative = inhibition) at 10uM” value is 3.74%.
Take `Oc1ccccc1-c1cc(C(F)(F)C(F)F)[nH]n1`: the “hERG current change (%, negative = inhibition) at 10uM” value is 1.94%.
Consider `Clc1ccc(C#Cc2cccnc2)cc1`, for which the “hERG current change (%, negative = inhibition) at 10uM” value is -2.6%.
Turning to `Cn1c(Cc2ccccc2)nnc1SCC(=O)NC1CC1`, the “hERG current change (%, negative = inhibition) at 10uM” value is listed as -8.78%.
As for `COCc1nnc(NS(=O)(=O)c2ccc(Br)cc2)s1`, the “hERG current change (%, negative = inhibition) at 10uM” value is 14.1%.
On to `CCOc1ccc(NC(=S)N(CCc2ccncc2)C(C)C)cc1`, for which the “hERG current change (%, negative = inhibition) at 10uM” value is reported as -50.6%.
As for `CCn1c(COc2ccccc2C)nc2ccccc21`, the “hERG current change (%, negative = inhibition) at 10uM” value is 4.07%.
In the case of `CCc1ccccc1NC(=O)c1cc(-c2ccc3c(c2)OCO3)on1`, the “hERG current change (%, negative = inhibition) at 10uM” value is listed as 3.52%.
Turning to `CCC(=O)c1c(OCc2ccccc2)ccc2c(C)cc(=O)oc12`, the “hERG current change (%, negative = inhibition) at 10uM” value was found to be 3.37%.
For `C[C@H](NC(=O)c1nc[nH]c1C(=O)N[C@@H](C)c1ccccc1)c1ccccc1` the value was 4.47%.
Regarding `Cc1ccc(C(=O)OCC(=O)c2c(N)n(C)c(=O)n(C)c2=O)cc1S(=O)(=O)N1CCOCC1`, the “hERG current change (%, negative = inhibition) at 10uM” value is listed as -22.4%.
The same measure for `c1ccc(Nc2ccc(-n3ccnc3)nn2)cc1`: 12.2%; for `Cn1c(O)c(N=NC(=O)CNC(=O)/C=C/c2ccccc2)c2ccccc21`: -16.9%; for `COc1ccccc1C(=O)NCC(=O)OC(C)C(=O)N1CCOCC1` (stereo not drawn): 24.9%.
Consider `Cc1nn(C)cc1CN(C)C(=O)c1cc(COc2ccc(F)cc2F)on1`, for which the “hERG current change (%, negative = inhibition) at 10uM” value is recorded as -2.16%.
Turning to `c1cc2ccc3ccc(CN4CCOCC4)c4ccc(c1)c2c34`, the “hERG current change (%, negative = inhibition) at 10uM” value was 5.3%.
As for `CCN(C(C)=O)N(CC)c1nc(Cl)nc(NC(C)C)n1`, the “hERG current change (%, negative = inhibition) at 10uM” value is -8.48%.
Consider `O=C(Nc1ccccc1)OCCOc1ccccc1Br`, for which the “hERG current change (%, negative = inhibition) at 10uM” value turned out to be 28.3%.
As to `Cc1nn(-c2ccccc2)nc1C(=O)NN`, the “hERG current change (%, negative = inhibition) at 10uM” value is recorded as 9.05%.
Turning to `COc1ccc(NC(=O)C2CC(=O)NC3=C2C(=O)CC(C)(C)C3)cc1` (stereo not drawn), the “hERG current change (%, negative = inhibition) at 10uM” value was -1.79%.
`COc1cccc(C2CC(c3ccccc3)Nc3nc(N)nn32)c1` (stereo not drawn): the “hERG current change (%, negative = inhibition) at 10uM” value was -7.93%.
As to `Cc1ccc(NC(=S)N2CCN(c3ccccn3)CC2)cc1C`, the “hERG current change (%, negative = inhibition) at 10uM” value worked out at 12.3%.
For `Cc1cc(C)c2c(c1)/C(=N/Nc1ccc(S(N)(=O)=O)cc1[N+](=O)[O-])CCC2` the value was 14.6%.
For `COc1cccc(/C=C2\Oc3cc(OCC(=O)N4CCCCC4)ccc3C2=O)c1OC` the value was 18.6%.
